From the supplement of paper PMC8728848
This is one part of the list.

Experiments:
Assay in all cases: glycan array binding signal (z-score within array); higher = stronger binding
Conditions in all cases: glycan notation: IUPAC condensed, linker removed
GlcNAc(b1-3)Gal(b1-4)Glc = molecular target: GlcNAc(b1-3)Gal(b1-4)Glc
In short: (§1)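 Columns mapping to the same glycan were averaged after glycan names were converted to IUPAC-condensed notation. The data come from 3228 arrays in the Consortium for Functional Glycomics database, limited to those with an available protein sequence. Binding is reported as a within-array Z-score averaged across arrays of one protein sequence and across linkers.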

[1] = molecular target: GlcNAc(b1-3)Gal(b1-4)GlcNAc
In short: as §1

[2] = molecular target: GlcNAc(b1-3)Gal(b1-4)GlcNAc(b1-2)Man(a1-3)[GlcNAc(b1-3)Gal(b1-4)GlcNAc(b1-2)Man(a1-6)]Man(b1-4)GlcNAc(b1-4)GlcNAc
In short: as §1

[3] = molecular target: GlcNAc(b1-3)Gal(b1-4)GlcNAc(b1-2)Man(a1-3)[GlcNAc(b1-3)Gal(b1-4)GlcNAc(b1-2)Man(a1-6)]Man(b1-4)GlcNAc(b1-4)[Fuc(a1-6)]GlcNAc
In short: as §1

[4] = molecular target: GlcNAc(b1-3)Gal(b1-4)GlcNAc(b1-2)[GlcNAc(b1-3)Gal(b1-4)GlcNAc(b1-6)]Man(a1-6)[GlcNAc(b1-3)Gal(b1-4)GlcNAc(b1-2)Man(a1-3)]Man(b1-4)GlcNAc(b1-4)GlcNAc
In short: as §1

[5] = molecular target: GlcNAc(b1-3)Gal(b1-4)GlcNAc(b1-3)Gal(b1-4)GlcNAc
In short: as §1

[6] = molecular target: GlcNAc(b1-3)Gal(b1-4)GlcNAc(b1-3)Gal(b1-4)GlcNAc(b1-2)Man(a1-3)[GlcNAc(b1-3)Gal(b1-4)GlcNAc(b1-3)Gal(b1-4)GlcNAc(b1-2)Man(a1-6)]Man(b1-4)GlcNAc(b1-4)GlcNAc
In short: as §1

[7] = molecular target: GlcNAc(b1-3)Gal(b1-4)GlcNAc(b1-3)Gal(b1-4)GlcNAc(b1-2)Man(a1-3)[GlcNAc(b1-3)Gal(b1-4)GlcNAc(b1-3)Gal(b1-4)GlcNAc(b1-2)Man(a1-6)]Man(b1-4)GlcNAc(b1-4)[Fuc(a1-6)]GlcNAc
In short: as §1

[8] = molecular target: GlcNAc(b1-3)Gal(b1-4)GlcNAc(b1-3)Gal(b1-4)GlcNAc(b1-2)[GlcNAc(b1-3)Gal(b1-4)GlcNAc(b1-3)Gal(b1-4)GlcNAc(b1-6)]Man(a1-6)[GlcNAc(b1-3)Gal(b1-4)GlcNAc(b1-3)Gal(b1-4)GlcNAc(b1-2)Man(a1-3)]Man(b1-4)GlcNAc(b1-4)[Fuc(a1-6)]GlcNAc
In short: as §1

[9] = molecular target: GlcNAc(b1-3)Gal(b1-4)GlcNAc(b1-3)Gal(b1-4)GlcNAc(b1-3)Gal(b1-4)GlcNAc(b1-2)Man(a1-3)[GlcNAc(b1-3)Gal(b1-4)GlcNAc(b1-3)Gal(b1-4)GlcNAc(b1-3)Gal(b1-4)GlcNAc(b1-2)Man(a1-6)]Man(b1-4)GlcNAc(b1-4)GlcNAc
In short: as §1

[10] = molecular target: GlcNAc(b1-3)Gal(b1-4)GlcNAc(b1-3)Gal(b1-4)GlcNAc(b1-3)Gal(b1-4)GlcNAc(b1-2)Man(a1-3)[GlcNAc(b1-3)Gal(b1-4)GlcNAc(b1-3)Gal(b1-4)GlcNAc(b1-3)Gal(b1-4)GlcNAc(b1-2)Man(a1-6)]Man(b1-4)GlcNAc(b1-4)[Fuc(a1-6)]GlcNAc
In short: as §1

[11] = molecular target: GlcNAc(b1-3)Gal(b1-4)GlcNAc(b1-3)Gal(b1-4)GlcNAc(b1-3)Gal(b1-4)GlcNAc(b1-2)[GlcNAc(b1-3)Gal(b1-4)GlcNAc(b1-3)Gal(b1-4)GlcNAc(b1-3)Gal(b1-4)GlcNAc(b1-6)]Man(a1-6)[GlcNAc(b1-3)Gal(b1-4)GlcNAc(b1-3)Gal(b1-4)GlcNAc(b1-3)Gal(b1-4)GlcNAc(b1-2)Man(a1-3)]Man(b1-4)GlcNAc(b1-4)[Fuc(a1-6)]GlcNAc
In short: as §1

[12] = molecular target: GlcNAc(b1-3)Gal(b1-4)GlcNAc(b1-3)Gal(b1-4)GlcNAc(b1-3)Gal(b1-4)GlcNAc(b1-3)Gal(b1-4)GlcNAc(b1-2)Man(a1-3)[GlcNAc(b1-3)Gal(b1-4)GlcNAc(b1-3)Gal(b1-4)GlcNAc(b1-3)Gal(b1-4)GlcNAc(b1-3)Gal(b1-4)GlcNAc(b1-2)Man(a1-6)]Man(b1-4)GlcNAc(b1-4)GlcNAc
In short: as §1

[13] = molecular target: GlcNAc(b1-3)Gal(b1-4)GlcNAc(b1-3)Gal(b1-4)GlcNAc(b1-3)Gal(b1-4)GlcNAc(b1-3)Gal(b1-4)GlcNAc(b1-2)Man(a1-3)[GlcNAc(b1-3)Gal(b1-4)GlcNAc(b1-3)Gal(b1-4)GlcNAc(b1-3)Gal(b1-4)GlcNAc(b1-3)Gal(b1-4)GlcNAc(b1-2)Man(a1-6)]Man(b1-4)GlcNAc(b1-4)[Fuc(a1-6)]GlcNAc
In short: as §1

[14] = molecular target: GlcNAc(b1-3)Gal(b1-4)GlcNAc(b1-3)Gal(b1-4)GlcNAc(b1-3)Gal(b1-4)GlcNAc(b1-3)Gal(b1-4)GlcNAc(b1-2)[GlcNAc(b1-3)Gal(b1-4)GlcNAc(b1-3)Gal(b1-4)GlcNAc(b1-3)Gal(b1-4)GlcNAc(b1-3)Gal(b1-4)GlcNAc(b1-6)]Man(a1-6)[GlcNAc(b1-3)Gal(b1-4)GlcNAc(b1-3)Gal(b1-4)GlcNAc(b1-3)Gal(b1-4)GlcNAc(b1-3)Gal(b1-4)GlcNAc(b1-2)Man(a1-3)]Man(b1-4)GlcNAc(b1-4)[Fuc(a1-6)]GlcNAc
In short: as §1

[15] = molecular target: GlcNAc(b1-3)Gal(b1-4)GlcNAc(b1-3)Gal(b1-4)GlcNAc(b1-3)GalNAc
In short: as §1

[16] = molecular target: GlcNAc(b1-3)Gal(b1-4)GlcNAc(b1-3)GalNAc
In short: as §1

[17] = molecular target: GlcNAc(b1-3)Gal(b1-4)GlcNAc(b1-3)[GlcNAc(b1-3)Gal(b1-4)GlcNAc(b1-3)]GalNAc
In short: as §1

[18] = molecular target: GlcNAc(b1-3)Gal(b1-4)GlcNAc(b1-6)[Gal(b1-3)]GalNAc
In short: as §1

[19] = molecular target: GlcNAc(b1-3)Gal(b1-4)GlcNAc(b1-6)[GlcNAc(b1-3)Gal(b1-3)]GalNAc
In short: as §1

[20] = molecular target: GlcNAc(b1-3)Gal(b1-4)GlcNAc(b1-6)[GlcNAc(b1-3)]Gal(b1-4)GlcNAc
In short: as §1

GlcNAc(b1-3)GalNAc = molecular target: GlcNAc(b1-3)GalNAc
In short: as §1

GlcNAc(b1-3)Man = molecular target: GlcNAc(b1-3)Man
In short: as §1

[21] = molecular target: GlcNAc(b1-3)[GlcNAc(b1-4)][GlcNAc(b1-6)]GlcNAc
In short: as §1

[22] = molecular target: GlcNAc(b1-3)[GlcNAc(b1-6)]Gal(b1-4)GlcNAc
In short: as §1

[23] = molecular target: GlcNAc(b1-3)[GlcNAc(b1-6)]GalNAc
In short: as §1

[24] = molecular target: GlcNAc(b1-4)Gal(b1-4)GlcNAc
In short: as §1

GlcNAc(b1-4)GlcNAc = molecular target: GlcNAc(b1-4)GlcNAc
In short: as §1

[25] = molecular target: GlcNAc(b1-4)GlcNAc(b1-4)GlcNAc
In short: as §1

[26] = molecular target: GlcNAc(b1-4)GlcNAc(b1-4)GlcNAc(b1-4)GlcNAc(b1-4)GlcNAc
In short: as §1

[27] = molecular target: GlcNAc(b1-4)GlcNAc(b1-4)GlcNAc(b1-4)GlcNAc(b1-4)GlcNAc(b1-4)GlcNAc
In short: as §1

[28] = molecular target: GlcNAc(b1-4)[GlcNAc(b1-6)]GalNAc
In short: as §1

[29] = molecular target: GlcNAc(b1-6)Gal(b1-4)GlcNAc
In short: as §1

GlcNAc(b1-6)GalNAc = molecular target: GlcNAc(b1-6)GalNAc
In short: as §1

[30] = molecular target: GlcNAc6S(b1-3)Gal(b1-4)GlcNAc
In short: as §1

Kdn(a2-3)Gal(b1-3)GalNAc = molecular target: Kdn(a2-3)Gal(b1-3)GalNAc
In short: as §1

Kdn(a2-3)Gal(b1-3)GlcNAc = molecular target: Kdn(a2-3)Gal(b1-3)GlcNAc
In short: as §1

Kdn(a2-3)Gal(b1-4)Glc = molecular target: Kdn(a2-3)Gal(b1-4)Glc
In short: as §1

Kdn(a2-3)Gal(b1-4)GlcNAc = molecular target: Kdn(a2-3)Gal(b1-4)GlcNAc
In short: as §1

[31] = molecular target: Kdn(a2-3)Gal(b1-4)[Fuc(a1-3)]GlcNAc
In short: as §1

Kdn(a2-6)Gal(b1-4)GlcNAc = molecular target: Kdn(a2-6)Gal(b1-4)GlcNAc
In short: as §1

[32] = molecular target: Man(a1-2)Man(a1-2)Man(a1-3)Man
In short: as §1

[33] = molecular target: Man(a1-2)Man(a1-2)Man(a1-6)[Man(a1-3)]Man
In short: as §1

Man(a1-2)Man(a1-3)Man = molecular target: Man(a1-2)Man(a1-3)Man
In short: as §1

[34] = molecular target: Man(a1-2)Man(a1-3)[Man(a1-2)Man(a1-6)]Man
In short: as §1

B1: SBD-G4S3-SBD (protein)
chain: MASIPSSASVQLDSYNYDGSTFSGKIYVKNIAYSKKVTVVYADGSDNWNNNGNIIAASFSGPISGSNYEYWTFSASVKGIKEFYIKYEVSGKTYYDNNNSANYQVSTGGGGSGGGGSGGGGSEFASIPSSASVQLDSYNYDGSTFSGKIYVKNIAYSKKVTVVYADGSDNWNNNGNIIAASFSGPISGSNYEYWTFSASVKGIKEFYIKYEVSGKTYYDNNNSANYQVST
glycan array binding signal (z-score) (GlcNAc(b1-3)Gal(b1-4)Glc): -0.331 | glycan array binding signal (z-score) [1]: -0.393 | glycan array binding signal (z-score) [2]: -0.366 | glycan array binding signal (z-score) [3]: -0.302 | glycan array binding signal (z-score) [4]: 2.56 | glycan array binding signal (z-score) [5]: -0.419 | glycan array binding signal (z-score) [6]: -0.203 | glycan array binding signal (z-score) [7]: -0.304 | glycan array binding signal (z-score) [8]: -0.26 | glycan array binding signal (z-score) [9]: -0.347 | glycan array binding signal (z-score) [10]: -0.264 | glycan array binding signal (z-score) [11]: -0.305 | glycan array binding signal (z-score) [12]: -0.349 | glycan array binding signal (z-score) [13]: -0.335 | glycan array binding signal (z-score) [14]: 0.027 | glycan array binding signal (z-score) [15]: -0.372 | glycan array binding signal (z-score) [16]: -0.417 | glycan array binding signal (z-score) [17]: -0.39 | glycan array binding signal (z-score) [18]: -0.393 | glycan array binding signal (z-score) [19]: -0.215 | glycan array binding signal (z-score) [20]: -0.406 | glycan array binding signal (z-score) (GlcNAc(b1-3)GalNAc): -0.407 | glycan array binding signal (z-score) (GlcNAc(b1-3)Man): -0.345 | glycan array binding signal (z-score) [21]: -0.408 | glycan array binding signal (z-score) [22]: -0.402 | glycan array binding signal (z-score) [23]: -0.362 | glycan array binding signal (z-score) [24]: -0.366 | glycan array binding signal (z-score) (GlcNAc(b1-4)GlcNAc): -0.332 | glycan array binding signal (z-score) [25]: -0.367 | glycan array binding signal (z-score) [26]: -0.371 | glycan array binding signal (z-score) [27]: -0.364 | glycan array binding signal (z-score) [28]: -0.397 | glycan array binding signal (z-score) [29]: -0.409 | glycan array binding signal (z-score) (GlcNAc(b1-6)GalNAc): -0.075 | glycan array binding signal (z-score) [30]: -0.111 | glycan array binding signal (z-score) (Kdn(a2-3)Gal(b1-3)GalNAc): -0.316 | glycan array binding signal (z-score) (Kdn(a2-3)Gal(b1-3)GlcNAc): -0.41 | glycan array binding signal (z-score) (Kdn(a2-3)Gal(b1-4)Glc): -0.276 | glycan array binding signal (z-score) (Kdn(a2-3)Gal(b1-4)GlcNAc): -0.416 | glycan array binding signal (z-score) [31]: -0.296 | glycan array binding signal (z-score) (Kdn(a2-6)Gal(b1-4)GlcNAc): -0.365 | glycan array binding signal (z-score) [32]: -0.248 | glycan array binding signal (z-score) [33]: -0.367 | glycan array binding signal (z-score) (Man(a1-2)Man(a1-3)Man): -0.402 | glycan array binding signal (z-score) [34]: -0.315
